The other results are listed elsewhere or left out.
Tests used:
Assay in all cases: glycan array binding signal (z-score within array); higher = stronger binding
Settings in all cases: glycan notation: IUPAC condensed, linker removed
[1] = target: Gal(b1-3)GalNAc(b1-3)Gal(a1-4)Gal(b1-4)Glc
Outline: (§1)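 Arrays were curated from the Consortium for Functional Glycomics database, 3228 in total, and kept only where the protein sequence was available. Binding is expressed as a within-array Z-score. This score was averaged across arrays of the same protein sequence at different concentrations or buffers and across linkers, and negative values can be read as non-binding.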

[2] = target: Gal(b1-3)GalNAc(b1-4)Gal(b1-4)Glc
Outline: as §1

[3] = target: Gal(b1-3)GalNAc(b1-4)[Neu5Ac(a2-3)]Gal(b1-4)Glc
Outline: as §1

Gal(b1-3)GlcNAc = target: Gal(b1-3)GlcNAc
Outline: as §1

[4] = target: Gal(b1-3)GlcNAc(a1-3)Gal(b1-4)GlcNAc
Outline: as §1

[5] = target: Gal(b1-3)GlcNAc(a1-6)Gal(b1-4)GlcNAc
Outline: as §1

Gal(b1-3)GlcNAc(b1-2)Man = target: Gal(b1-3)GlcNAc(b1-2)Man
Outline: as §1

[6] = target: Gal(b1-3)GlcNAc(b1-2)Man(a1-3)[Gal(b1-3)GlcNAc(b1-2)Man(a1-6)]Man(b1-4)GlcNAc(b1-4)GlcNAc
Outline: as §1

[7] = target: Gal(b1-3)GlcNAc(b1-2)Man(a1-3)[Gal(b1-3)GlcNAc(b1-2)Man(a1-6)]Man(b1-4)GlcNAc(b1-4)[Fuc(a1-6)]GlcNAc
Outline: as §1

[8] = target: Gal(b1-3)GlcNAc(b1-2)Man(a1-3)[GlcNAc(b1-4)][Gal(b1-3)GlcNAc(b1-2)Man(a1-6)]Man(b1-4)GlcNAc(b1-4)GlcNAc
Outline: as §1

[9] = target: Gal(b1-3)GlcNAc(b1-2)[Gal(b1-3)GlcNAc(b1-6)]Man(a1-6)[Gal(b1-3)GlcNAc(b1-2)Man(a1-3)]Man(b1-4)GlcNAc(b1-4)GlcNAc
Outline: as §1

[10] = target: Gal(b1-3)GlcNAc(b1-3)Gal(b1-3)GlcNAc
Outline: as §1

[11] = target: Gal(b1-3)GlcNAc(b1-3)Gal(b1-4)Glc
Outline: as §1

[12] = target: Gal(b1-3)GlcNAc(b1-3)Gal(b1-4)GlcNAc
Outline: as §1

[13] = target: Gal(b1-3)GlcNAc(b1-3)Gal(b1-4)GlcNAc(b1-2)Man(a1-3)[Gal(b1-3)GlcNAc(b1-3)Gal(b1-4)GlcNAc(b1-2)Man(a1-6)]Man(b1-4)GlcNAc(b1-4)GlcNAc
Outline: as §1

[14] = target: Gal(b1-3)GlcNAc(b1-3)Gal(b1-4)GlcNAc(b1-2)[Gal(b1-3)GlcNAc(b1-3)Gal(b1-4)GlcNAc(b1-6)]Man(a1-6)[Gal(b1-3)GlcNAc(b1-3)Gal(b1-4)GlcNAc(b1-2)Man(a1-3)]Man(b1-4)GlcNAc(b1-4)[Fuc(a1-6)]GlcNAc
Outline: as §1

[15] = target: Gal(b1-3)GlcNAc(b1-3)Gal(b1-4)GlcNAc(b1-3)Gal(b1-4)GlcNAc(b1-2)[Gal(b1-3)GlcNAc(b1-3)Gal(b1-4)GlcNAc(b1-3)Gal(b1-4)GlcNAc(b1-6)]Man(a1-6)[Gal(b1-3)GlcNAc(b1-3)Gal(b1-4)GlcNAc(b1-3)Gal(b1-4)GlcNAc(b1-2)Man(a1-3)]Man(b1-4)GlcNAc(b1-4)[Fuc(a1-6)]GlcNAc
Outline: as §1

[16] = target: Gal(b1-3)GlcNAc(b1-3)Gal(b1-4)GlcNAc(b1-6)[Gal(b1-3)GlcNAc(b1-3)]Gal(b1-4)Glc
Outline: as §1

[17] = target: Gal(b1-3)GlcNAc(b1-3)Gal(b1-4)[Fuc(a1-3)]GlcNAc
Outline: as §1

[18] = target: Gal(b1-3)GlcNAc(b1-3)Gal(b1-4)[Fuc(a1-3)]GlcNAc(b1-6)[Gal(b1-3)GlcNAc(b1-3)]Gal(b1-4)Glc
Outline: as §1

[19] = target: Gal(b1-3)GlcNAc(b1-3)GalNAc
Outline: as §1

[20] = target: Gal(b1-3)GlcNAc(b1-6)Gal(b1-4)GlcNAc
Outline: as §1

[21] = target: Gal(b1-3)GlcNAc(b1-6)GalNAc
Outline: as §1

[22] = target: Gal(b1-3)GlcNAc(b1-6)[Gal(b1-3)]GalNAc
Outline: as §1

Gal(b1-3)GlcNAc6S = target: Gal(b1-3)GlcNAc6S
Outline: as §1

[23] = target: Gal(b1-3)[Fuc(a1-4)]GlcNAc
Outline: as §1

[24] = target: Gal(b1-3)[Fuc(a1-4)]GlcNAc(b1-2)Man
Outline: as §1

[25] = target: Gal(b1-3)[Fuc(a1-4)]GlcNAc(b1-2)Man(a1-3)[Gal(b1-3)[Fuc(a1-4)]GlcNAc(b1-2)Man(a1-6)]Man(b1-4)GlcNAc(b1-4)GlcNAc
Outline: as §1

[26] = target: Gal(b1-3)[Fuc(a1-4)]GlcNAc(b1-2)Man(a1-3)[Gal(b1-3)[Fuc(a1-4)]GlcNAc(b1-2)Man(a1-6)]Man(b1-4)GlcNAc(b1-4)[Fuc(a1-6)]GlcNAc
Outline: as §1

[27] = target: Gal(b1-3)[Fuc(a1-4)]GlcNAc(b1-3)Gal(b1-3)[Fuc(a1-4)]GlcNAc
Outline: as §1

[28] = target: Gal(b1-3)[Fuc(a1-4)]GlcNAc(b1-3)Gal(b1-4)GlcNAc
Outline: as §1

[29] = target: Gal(b1-3)[Fuc(a1-4)]GlcNAc(b1-3)Gal(b1-4)[Fuc(a1-3)]GlcNAc
Outline: as §1

[30] = target: Gal(b1-3)[Fuc(a1-4)]GlcNAc(b1-6)GalNAc
Outline: as §1

[31] = target: Gal(b1-3)[GlcNAc(b1-6)]GalNAc
Outline: as §1

[32] = target: Gal(b1-3)[Neu5Ac(a2-6)]GalNAc
Outline: as §1

[33] = target: Gal(b1-3)[Neu5Ac(a2-6)]GlcNAc(b1-4)Gal(b1-4)Glc
Outline: as §1

[34] = target: Gal(b1-3)[Neu5Ac(a2-6)]GlcNAc(b1-6)Gal(b1-4)Glc
Outline: as §1

[35] = target: Gal(b1-3)[Neu5Ac(b2-6)]GalNAc
Outline: as §1

Gal(b1-4)Gal = target: Gal(b1-4)Gal
Outline: as §1

[36] = target: Gal(b1-4)GalNAc(a1-3)[Fuc(a1-2)]Gal(b1-4)GlcNAc
Outline: as §1

[37] = target: Gal(b1-4)GalNAc(b1-3)[Fuc(a1-2)]Gal(b1-4)GlcNAc
Outline: as §1

Gal(b1-4)Glc = target: Gal(b1-4)Glc
Outline: as §1

Gal(b1-4)Glc6S = target: Gal(b1-4)Glc6S
Outline: as §1

Gal(b1-4)GlcNAc = target: Gal(b1-4)GlcNAc
Outline: as §1

[38] = target: Gal(b1-4)GlcNAc(a1-6)Gal(b1-4)GlcNAc
Outline: as §1

B1: Gal 1 (Mus musculus), P16045 (protein)
chain: MACGLVASNLNLKPGECLKVRGEVASDAKSFVLNLGKDSNNLCLHFNPRFNAHGDANTIVCNTKEDGTWGTEHREPAFPFQPGSITEVCITFDQADLTIKLPDGHEFKFPNRLNMEAINYMAADGDFKIKCVAFE
- glycan array binding signal (z-score) [1]: -0.32
- glycan array binding signal (z-score) [2]: -0.424
- glycan array binding signal (z-score) [3]: -0.383
- glycan array binding signal (z-score) (Gal(b1-3)GlcNAc): -0.203
- glycan array binding signal (z-score) [4]: 0.126
- glycan array binding signal (z-score) [5]: -0.236
- glycan array binding signal (z-score) (Gal(b1-3)GlcNAc(b1-2)Man): -0.113
- glycan array binding signal (z-score) [6]: 0.197
- glycan array binding signal (z-score) [7]: -0.054
- glycan array binding signal (z-score) [8]: 0.047
- glycan array binding signal (z-score) [9]: 1.76
- glycan array binding signal (z-score) [10]: -0.2
- glycan array binding signal (z-score) [11]: -0.047
- glycan array binding signal (z-score) [12]: -0.22
- glycan array binding signal (z-score) [13]: 0.739
- glycan array binding signal (z-score) [14]: 1.34
- glycan array binding signal (z-score) [15]: 2.97
- glycan array binding signal (z-score) [16]: 0.473
- glycan array binding signal (z-score) [17]: -0.155
- glycan array binding signal (z-score) [18]: 0.229
- glycan array binding signal (z-score) [19]: -0.323
- glycan array binding signal (z-score) [20]: -0.26
- glycan array binding signal (z-score) [21]: -0.229
- glycan array binding signal (z-score) [22]: -0.257
- glycan array binding signal (z-score) (Gal(b1-3)GlcNAc6S): -0.424
- glycan array binding signal (z-score) [23]: -0.152
- glycan array binding signal (z-score) [24]: -0.166
- glycan array binding signal (z-score) [25]: 0.394
- glycan array binding signal (z-score) [26]: 0.04
- glycan array binding signal (z-score) [27]: -0.221
- glycan array binding signal (z-score) [28]: -0.032
- glycan array binding signal (z-score) [29]: -0.252
- glycan array binding signal (z-score) [30]: -0.174
- glycan array binding signal (z-score) [31]: -0.31
- glycan array binding signal (z-score) [32]: -0.237
- glycan array binding signal (z-score) [33]: -0.394
- glycan array binding signal (z-score) [34]: -0.078
- glycan array binding signal (z-score) [35]: -0.295
- glycan array binding signal (z-score) (Gal(b1-4)Gal): -0.351
- glycan array binding signal (z-score) [36]: -0.346
- glycan array binding signal (z-score) [37]: -0.459
- glycan array binding signal (z-score) (Gal(b1-4)Glc): -0.103
- glycan array binding signal (z-score) (Gal(b1-4)Glc6S): -0.209
- glycan array binding signal (z-score) (Gal(b1-4)GlcNAc): -0.328
- glycan array binding signal (z-score) [38]: 0.744
